In PMC4336329 (PLoS ONE, 2015):
Among all 310,000 compounds or so, about 2,200 (0.71%) showed an effect of 50% or more. The effect is printed as a negative number. The list shows a part of the results.

Molecular target: human ether-à-go-go-related gene (hERG) potassium channel (human, UniProt Q12809)
Experiment: primary screen, population patch clamp on CHO cells stably expressing hERG

Chain of human ether-à-go-go-related gene (hERG) potassium channel (Q12809 whole entry, looked up): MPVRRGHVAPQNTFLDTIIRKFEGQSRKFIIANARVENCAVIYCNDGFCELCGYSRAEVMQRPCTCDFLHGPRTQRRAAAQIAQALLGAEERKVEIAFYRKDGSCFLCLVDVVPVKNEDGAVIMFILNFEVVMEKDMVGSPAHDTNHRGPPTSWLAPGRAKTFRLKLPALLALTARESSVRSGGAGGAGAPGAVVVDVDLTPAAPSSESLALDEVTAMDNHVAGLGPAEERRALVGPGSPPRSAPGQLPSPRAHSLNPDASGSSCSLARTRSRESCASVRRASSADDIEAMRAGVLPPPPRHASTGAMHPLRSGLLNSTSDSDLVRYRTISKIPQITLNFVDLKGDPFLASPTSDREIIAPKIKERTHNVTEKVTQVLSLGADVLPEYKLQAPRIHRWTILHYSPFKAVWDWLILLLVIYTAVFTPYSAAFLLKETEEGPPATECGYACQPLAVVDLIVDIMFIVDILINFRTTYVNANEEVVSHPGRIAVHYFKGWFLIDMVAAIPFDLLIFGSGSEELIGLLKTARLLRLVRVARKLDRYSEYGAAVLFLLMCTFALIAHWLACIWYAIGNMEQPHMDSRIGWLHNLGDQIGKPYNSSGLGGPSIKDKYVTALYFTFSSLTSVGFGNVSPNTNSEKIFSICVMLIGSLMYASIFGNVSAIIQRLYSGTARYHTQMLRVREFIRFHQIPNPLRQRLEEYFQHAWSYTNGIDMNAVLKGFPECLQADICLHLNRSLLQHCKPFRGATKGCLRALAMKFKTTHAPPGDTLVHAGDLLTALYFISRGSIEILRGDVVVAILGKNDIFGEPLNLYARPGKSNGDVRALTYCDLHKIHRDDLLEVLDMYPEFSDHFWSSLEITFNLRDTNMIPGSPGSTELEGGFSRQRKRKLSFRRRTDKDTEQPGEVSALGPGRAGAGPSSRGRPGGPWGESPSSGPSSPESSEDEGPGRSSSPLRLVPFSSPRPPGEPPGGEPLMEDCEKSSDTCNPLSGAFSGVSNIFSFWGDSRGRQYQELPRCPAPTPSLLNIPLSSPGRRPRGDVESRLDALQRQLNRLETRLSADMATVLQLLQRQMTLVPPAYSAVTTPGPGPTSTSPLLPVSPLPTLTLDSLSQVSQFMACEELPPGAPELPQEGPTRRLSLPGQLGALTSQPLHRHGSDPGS

SMILES | hERG current change (%, negative = inhibition) at 1uM [%]
Cc1ccc2nc(-c3ccc(SCC(=O)Nc4nc(C)cs4)nc3)[nH]c2c1 | 5.41
O=C(O)c1ccc(N/N=C2/CCSc3ccc(F)cc32)cc1 | 2.15
CCCc1cc(C(=O)Nc2cc(Br)ccc2O)no1 | 18.4
CC(=O)CCc1oc2ccccc2c1-c1ccccc1 | 9.75
COCCNc1ncnc2c1cnn2Cc1ccc(Cl)cc1 | -6.85
COCCOC(=O)C1=C(C)NC(=O)NC1c1c(F)cccc1Cl (stereo not shown) | 6.78
Cc1cccc(OCc2nc(-c3ccccn3)n[nH]2)c1 | 5.99
COc1ccc2oc(=O)c(C(C)=O)cc2c1 | 13.8
O=C(O)CC(NC(=O)C1c2ccccc2Oc2ccccc21)c1ccc(OC2CCCC2)cc1 (stereo not shown) | 10.7
CCc1ccccc1NC(=O)COc1cccc(-n2cnnn2)c1 | 9.74
COc1ccc2cnnc(SCC(=O)Nc3ccc(C(C)=O)cc3)c2c1OC | 1.42
CC(C)(O)CC[C@@H](O)[C@](C)(O)C1CC[C@@]2(O)C3=CC(=O)[C@]4(O)C[C@@H](O)[C@@H](O)C[C@]4(C)C3CC[C@]12C (stereo partly shown) | 17.1
CCOC(=O)c1ccccc1NC(=O)COC(=O)CCNS(=O)(=O)c1ccc(C)c(C)c1 | 15.2
CC(C)CC(NC(=O)COc1ccccc1)C(=O)O (stereo not shown) | 15.9
Cc1c(NC(=O)c2cccc(S(=O)(=O)N3CCOCC3)c2)c(=O)n(-c2ccccc2)n1C | 8.37
CCOC(=O)C1=C(C)C2C3C(=O)N(c4ccccc4C)C(=O)C3C1(C)C1C(=O)N(c3ccccc3C)C(=O)C21 (stereo not shown) | -4.44
CC1CCCC(C)N1CCNC(=O)Nc1ccc(Cl)cc1 (stereo not shown) | -20.5
Cc1ccc(NC(=O)c2cc(C)nc3ccccc23)c(C)c1 | 12.4
Cc1cccc(NC(=O)c2ccc(NC(=O)c3ccccc3Br)cc2)c1 | 13.9
CC(=O)c1ccc(OCc2cc(C(=O)N3CCC(c4ccncc4)CC3)no2)cc1 | -0.849
CCc1ccnc(NS(=O)(=O)c2ccc3c(c2)OCCO3)c1 | 16.5
COc1ccc(Cc2nc3ccc(C(=O)N4CCC(N(C)C)C4)cc3o2)cc1 (stereo not shown) | 11.6

SMILES | hERG current change (%, negative = inhibition) at 1uM [%]
CSc1nnc(-c2cccs2)n1C | 12.5
Cc1cccc(NS(=O)(=O)c2ccc(C(=O)N3CC(C)OC(C)C3)cc2)c1C (stereo not shown) | 19
CC1=C(C(=O)OCCCCCl)C(c2cc3c(cc2Br)OCO3)NC(=O)N1 (stereo not shown) | 24.6
Cc1cccc(CSc2nc3c(cc2C#N)CN(C)CC3)c1 | -16.8
O=C(O)CC1CCCC(c2ccccc2)C1=O (stereo not shown) | -0.549
COc1cccc(NC(=O)Cc2cccs2)c1 | 7.75
NC(=O)NCCCC(=O)NCC(c1ccccc1Cl)c1c[nH]c2ccccc12 (stereo not shown) | 18.3
COc1ccc(CCC(=O)NNC(=O)Nc2ccccc2Cl)cc1 | 11.3
Cc1cccc(OCCCc2c(C)n[nH]c2C)c1 | 6.19
N/C(=N\OC(=O)C(c1ccccc1)c1ccccc1)c1cccnc1 | -1.93
O=C(NCCN1CCOCC1)c1ccc2c(c1)N(Cc1ccccc1)C(=O)CS2 | 12.9
CC(=O)c1ccc(NC(=O)C(C)N(C)CC(=O)Nc2ccc(N3CCOCC3)cc2)cc1 (stereo not shown) | 0.17
O=C(N/N=C/c1c(O)n(-c2ccccc2)c(=O)[nH]c1=O)c1ccncc1 | 20.1
Cc1c(NC(=O)CN2c3cccc4cccc(c34)S2(=O)=O)c(=O)n(-c2ccccc2)n1C | 11.9
Cc1ccc2cc(C(c3nnnn3C3CCCC3)N(Cc3cccnc3)Cc3ccco3)c(=O)[nH]c2c1 (stereo not shown) | -47.4
CCN1C(Nc2ccccc2)=NC[C@@H]1Cc1ccccc1 | -0.914
OCC1(Cc2ccccc2F)CCCN(CCc2ccccc2)C1 (stereo not shown) | -30.5
C[C@H]1[C@H](C)CC[C@]2(C)CC[C@]3(C)C(=CC(=O)C4[C@@]5(C)CC[C@H](O)C(C)(C)C5CC[C@]43C)[C@H]12 (stereo partly shown) | 17.4
Nc1ccc(S(=O)(=O)NCC(=O)OCCOc2ccccc2)cc1[N+](=O)[O-] | 7.24
COC(=O)CN1C(=O)[C@H]2[C@@H](c3ccc(C)o3)N3C(=O)CN(CCO)C(=O)[C@@]3(C)[C@H]2C1=O | 7.16
CC1CN(Cc2ccc(Cl)cc2Cl)CC(C)O1 (stereo not shown) | 8.87
Fc1ccccc1CNc1ccc(Cl)cc1 | 12.8

SMILES | hERG current change (%, negative = inhibition) at 1uM [%]
COC(=O)COc1ccccc1C(=O)Nc1ccc(OC)cc1 | -7.63
NS(=O)(=O)c1ccc(NC(=S)Nc2ccc(C(=O)N3CCCCC3)cc2)cc1 | 12.3
COc1cc(N/C(N)=N/c2nc(C)cc(C)n2)cc(OC)c1 | -15.6
O=C(NCc1cccs1)C1CCCN1C(=O)Nc1ccc(F)cc1 (stereo not shown) | 15.2
COc1ccccc1Nc1nnc(C)c(=O)[nH]1 | 9.38
N#C/C(=C(\O)Cc1ccccc1)c1nc2ccccc2[nH]1 | 11.3
CC(C)(C)NC(=O)C1CC(=O)OC12CCCCC2 (stereo not shown) | 12.7
COc1ccc(CN2CCSCC2)c(C)c1C | 17
CN1CCCN(C(=O)c2ccc(Br)cc2)CC1 | 17.5
CSc1nc(-c2ccccc2)c(C#N)c(=O)[nH]1 | 4.71
Cc1cc(-n2c(SCC(=O)Nc3ccc(Br)cc3)nc3n[nH]c(C)c3c2=N)ccc1Cl | 9.65
O=C(N/N=C/c1c(Cl)nc2ccccn2c1=O)c1cccnc1 | 11.2
CC(NS(=O)(=O)c1ccc(Br)cc1)C(N)=O (stereo not shown) | 11.8
Cc1ccc(N2C(=O)NC(NC(=O)C3CC3)(C(F)(F)F)C2=O)cc1 (stereo not shown) | 2.87
CCc1cc2c(=O)c(-c3cnn(-c4ccccc4)c3)c(C)oc2cc1OCC(=O)Nc1cccc(C)c1 | 9.22
S=C1NC[C@H](CC2CCCCC2)N1CC1CCCCC1 | 14.3
c1ccc(Cn2nnnc2CN2CCN(c3ncccn3)CC2)cc1 | 9.33
O=C(NCCCn1ccnc1)/C(=C\c1ccc(Br)cc1)NC(=O)c1ccccc1 | -82.1
O=C(CSCc1cccc(Br)c1)NC1CC1 | 5.7
CCN(CC)CCNC(=O)C1c2ccccc2Oc2ccccc21.Cl | 11.2
CCc1cccc(NC(=S)N(CCCOC(C)C)C2CCN(C(C)=O)CC2)c1 | 10
COc1cccc(NC(=S)N2CCc3cc(OC)c(OC)cc3C2)c1 | 10.4

SMILES | hERG current change (%, negative = inhibition) at 1uM [%]
CCN(CC)c1ccc(C(=O)OCC(=O)N(C)Cc2ccccc2)cc1 | 0.0425
COc1ccccc1C(=O)O[C@H]1[C@H](Cc2ccccc2)NS(=O)(=O)[C@H]2C[C@@H]3C=C[C@]12O3 | 15.1
CCOC(=O)c1sc(NC(=O)C(CC)OC(=O)c2ccco2)nc1C (stereo not shown) | 4.4
CCn1c(=O)c([N+](=O)[O-])c(NCC(O)c2ccccc2)c2ccccc21 (stereo not shown) | 13.1
O=C1CC(c2ccccc2)CC(=NCCO)/C1=C(\O)CCCN1C(=O)c2ccccc2C1=O (stereo not shown) | -10.8
Cc1ccccc1NC(=O)C(C)OC(=O)CCC(=O)N(CC(C)C)c1c(N)n(CC(C)C)c(=O)[nH]c1=O (stereo not shown) | -0.648
CNS(=O)(=O)c1ccc(NS(=O)(=O)c2ccccc2F)cc1 | 12.7
Brc1ccc(C2=Nn3c(nnc3-c3n[nH]c4c3CCC4)SC2)cc1 | 9.48
COc1ccccc1N1CC(C(=O)OCc2nc(N)nc(Nc3ccccc3)n2)CC1=O (stereo not shown) | 7.72
Nc1cc(Cl)nc(N/N=C/c2ccccc2[N+](=O)[O-])n1 | 12.1
Cc1ccc(C(=O)NCC(=O)OCC(=O)c2c(N)n(C)c(=O)n(C)c2=O)s1 | 8.15
COc1ccc(NC(=O)Cc2nc3ccccc3[nH]2)cc1 | -10.1
Cl.O=C(NCCN1CCCC1)C(c1ccccc1)c1ccccc1 | 1.04
N#CC(C#N)=Cc1cc2ccccc2nc1N1CCOCC1 | 15.6
Cl.O=C(CN1CCN(c2cccc(C(F)(F)F)c2)CC1)Nc1cccc(C(F)(F)F)c1 | 9.79
O=C1C2C(C(=O)N1c1ccncc1)C1C=CC2C12CC2 (stereo not shown) | 4.31
CCOC(=O)C1=C(N)OC2=C(C(=O)CC(C)(C)C2)C1c1ccco1 (stereo not shown) | -7.98
CCCCSc1nnc(CNC(=O)C23CC4CC(CC(C4)C2)C3)n1Cc1ccccc1 | 1.35
O=C(CC1C(=O)NCCN1Cc1cccc(F)c1)NCCCN1CCCC1=O (stereo not shown) | 1.69
COc1ccc(OC)c(NC2c3ccccc3C(=O)N2Cc2ccc3c(c2)OCO3)c1 (stereo not shown) | 2.8
Cc1cc(C)c(CSc2ncc(-c3ccc([N+](=O)[O-])cc3)[nH]2)c(C)c1 | 2.47
Cc1ccc(C(O)c2nccn2C)o1 (stereo not shown) | 12.2
